# From the supplement of paper PMC11383711
# Some of the results follow. Binding of human antibodies (heavy:light variable regions, tested as scFv in one mRNA-display pool) to influenza hemagglutinin, with or without the stem antibody CR9114 bound first. Score = (mean enrichment − median) / interquartile range of that screen; higher = more enriched, 0 = typical non-binder. Active = above the paper's cut-off per screen: stems 28; unblocked H1 Solomon Islands 5, H1 Michigan 3, H3 5, H5 19, H7 2.85, both B 5; blocked 9, 7, H5 10, H7 10, B Phuket 10, B Lee 11.5. Scores are scaled within each screen and are no affinities; replicates correlate at about 0.6 to 0.9, and antibodies rare in the pool are noisier.
# B1: K77-2C09 (protein)
# chain 1: QVQLVQSGAEVKKPGASVKVSCKASGYTFNKYYMHWVRQAPGQGLEWMGVINPSGGSTTYAQKFQGRVTMTRDTSTSTVFMDLSSLRSEDTAVYYCATDIAIVPTAPFYGMDGWGQGTAVTVSS
# chain 2: DIVMTQSPLSLPVTPGEPASISCRSSQSLLHSDGHNCLGWYLRKPGQPPQLLIYLGSFRASGVPDRFSGSGSGTDFTLKISRVEAEDVGVYYCMQTLQTPLTFGGGTKVEIK
# B2: W85-2B12 (protein)
# chain 1: EVQLVESGGGVVQPGRSLRLSCAVSGFTFSSFAMHWVRQAPGKGLEWMAVISYNGINKDYADSVKGRFTISRDNSKNTLYLQVSSLRPEDTAVYYCASGQRQFDYFPDGDYYYFDSWGQGTLVTVSS
# chain 2: QSALTQPASVSGSPGQSITISCTGTSSDVGGYNYVSWYQQHPGKAPKLMIYEVNNRPSGVSNRFSGSKSGNTASLTISGLRAEDEADYYCSSYTSTSPLVFGGGTKLTVL
# B3: C8-A06 (protein)
# chain 1: VQLVQSGVEVKKPGASVKVSCKTSGYTFTSFDIDWVRQAPGQGLEWMGWMNPNSGTTGYAQKFQGRVTMTRNTSISTAYMELSSLRSDDTAVYYCARGKSTITTYWFDPWGQGTLVTVSS
# chain 2: DIVMTQSPDSLAVSLGERATINCKSSQTVLSNSNNENYLTWYQQKPGQPPRLLIYWASTRESGVPDRFTGSGSGTDFTLTISSLQAEDVAVYYCQQYYSNPYTFGQGTKVEIK
# B4: W85-3G10 (protein)
# chain 1: EVQLVDSGGGVVRPGRSLRLSCAASGFTFSSYAMHWVRQAPGRGLEWVTFISHDGSNVYYADSVTGRFTISRDNSKNTLYLQMNSLRVEDTAVYYCARDYCSTSSCYVDYWGQGTLVTVSS
# chain 2: NFMLTQPHSVSESPGKTVTISCTGSSGSIAYNYVQWYQQRPGSAPTTVIYEDNHRPSGVPDRFSGSVDSSSNSASLTISGLKTEDEADYYCQSYDSSNHVVFGGGTTADRP
# B5: 017-10-5E01 (protein)
# chain 1: QVQLQESGPGLVKPSQTLSLTCNVSGISMSSPGSFWSWLRQRPGKGLEWLGYVSHSGHTKYTPSLKSRLSISLDVSQDQFSLRLNFVTAADTAVYYCAREYQEQIGRAFDFWGQGTLVTVSS
# chain 2: DIQMTQSPSSLSASVGDRVTITCRASQRINTFLNWYQLKPGKAPKLLIYAASHLQSGVPSRFSATGFGTDFTLSISSLQPEDLATYYCQPTFTPSYTFGQGTKVEIK
# B6: 01.o.02 (protein)
# chain 1: QVQLQESGPGLVKPSETLSLICTVSSYSITSGYYWGWIRQPPGKGLEWIGNVYHSGSTHYNPSLKSRVTISLDTPKKQVSLRLSSLTAADTAVYYCTHSIIGNGRDFWGQGTLVAVSS
# chain 2: EIVMTQAPGTLSWSPGERTTLSGRASQQVSIIYLAWYQQRPEQAPSLIMYGASSRARGIPDRFSGRGLGTDFTLIISRQEPEDSTEYCCQQCGSTYLTFGQGTKVEIK
# B7: C1-2-2D06 (protein)
# chain 1: VQLQESGPGLVKPSETLSLTCTVSDYFINNGYYWAWIRQAPGKGLEWIGSIYHSGSTFYNPSLKSRVTISVDTSENQISLRLRSVTAADSAVYYCARQSIYTGNHFPKFDPWGQGTLVTVSS
# chain 2: AIQLTQSPSSLSASVGDRVTITCRASQGISSALAWYQQKPGKTPKLLIYDTSNLESGVPSRFSGSGSGTDFTLTISSLQPEDFATYYCQQFNSYPPEVTFGGGTKVEIK
# B8: W85-1E02 (protein)
# chain 1: EVQLVESGGGVVQSGRSLRLSCAASGFTFSSYALHWVRQAPGKGLEWVAVISYDASEKYYADSVKGRFTISRDKSKKTLYLQMNSLRAEDTAVYYCARSHFYYDSGDYWGQGTLVTVSS
# chain 2: DIQMTQSPSTLSASVGDKVTITCRASQSINRWLAWYQQKPGKAPKLLIYRASSLESGVPSRFSGSGSGTEFTLTISSLQPDDFATYFCQHYEGYSWTFGQGTKVDIK
# B9: antibody 3F05 (protein)
# chain 1: VQLVESGGGVVQPGRSLRLSCAASGFTFMSYNIHWFRQAPGKDLQWVAVVWYEGSTKFYGDSVKGRLTISRDNSKDMVYLQMNNLRAEDTAIYYCAREAVSPGPDDIYFGMDVWGHGTTVTVSS
# chain 2: EIVLTQSPATLSLSPGERATLSCRASQSVGSYLAWYQQKPGQAPRLLIYDVSNRATGIPARFIGSGSGTDFTLTISSLEPEDSAVYYCQQRSNWPPGVTFGPGTKVDIK
# B10: K77-1D03 (protein)
# chain 1: EVQLFESGGDLIQPGGSLRLSCAAFAFTFSSYAMTWVRQAPGKGLEWVSGISGSGYRTHYADSVKGRFTISRDNSKNTLYLQMNSLRGEDTAVYYCAKVSSDFTIYGEGYYYYDMDVWGQGTTVTVSS
# chain 2: DIQMTQSPSSLSASVGDRVTIACRASQYIRTYLNWYQQKIGKAPKALIYGASDLESGVPSRFSGSGSGTDFNLTISSLQPEDFATYYCQQTYTTPPFTFGPGTKVEIK
# B11: antibody 3G01 (protein)
# chain 1: VQLVESGGGVVQPGRSLRLSCAASGFTFGSYGMHWVRQAPGKGLEWVSVIYYDGRNKYYADSVKGRFTISRDNLKNTLYLQMNSLRAEDTAVYYCARDHNSYHYFDYWGRGTLVTVSS
# chain 2: NFMLTQPRSVSGSPGETVTISCTSSGRIVSGYVQWCQQRPGSAPITVIYESDQRPSGVPNRFSGSIDSSSQSASLTISGLETEDEADYYCQSSDRDNQGIFGGGTRLTVL
# B12: antibody 2B03 (protein)
# chain 1: QVQLQESGPGLVKPSQTLSLTCTVSGASVGSGTYYWTWIRQRPGTGLEWIGYIYDSGTTYYNPSLRSRLIISSDTSTNHFSLNLKSVTAADTAVYYCARVGHGDYVGYLDYWGQGILVTVSS
# chain 2: SYELTQPLSVSVALGQTARITCGGSNIGSKNVHWYQQKPGQAPILAIYRDNNRPSGIPERFSGSNSGNTATLIISRAQAGDEADYYCQVWDTSIAVVFGGGTKLTVL
# B13: 56.j.01 (protein)
# chain 1: QVQLVQSGAEMKKPGASVKVSCKASGYTFTNYYIHWMRQAPAQGLEWMGIINPSDDSTTYAQRFQGRVTMTSDTSTSTVYMELSSLRSEDTAVYYCAKLGYWTDDYWGQGTLVTVSS
# chain 2: DIQMTQSPSSLSASVGDRVTITCRASQGIGNYLAWYQQKPGKVPKLLIFAASTLQSGVPSRFSGSGSGTDFTLTISSLQPEDVATYYCQIFNSALGPLTFGGGTKVEI
# B14: R95-2E02 (protein)
# chain 1: EVQLVESGGGLIQPGGSLRLSCTASGFTFHDHAMHWVRQPPGKGLEWVSGISWNGGDMKYGGSVKGRFITSRDNGKKSLYLQMNSLRPEDTAVYYCAKEISVRYYDFWSGYLGKPRGMDVWGQGTTVTVSS
# chain 2: QSVLTQPPAASGTPGQTVNITCSGSPSNIGSETVNWYQRLPGTAPKLLIYSSNQRPSGVPDRFSGSKYGTSASLVISGLQSEDEGDYYCAVWDESRNGFYVFGTGTKVTVL
# B15: R95-2A04 (protein)
# chain 1: QVQLEQSGAEVKKPGASMKVSCKTSGYSFNAYFIHWVRQAPGQGLEWMGRINPTSGGTDYAQRFQDRVTMTRDTSINTAYMELSRLKSDDSALYYCTRALYYDSIAYYFDYWGRGTLVTVSS
# chain 2: SYELTQPPSVSVSPGQTASITCSGDELGKKYACWYQQKPGQSPAMVIYGDNKRPSGIPERFSGSNSGDTATLTISGTQAVDEAGYYCQTWDSRTAVFGTGTKV
# B16: K77-2D01 (protein)
# chain 1: QVQLVQSGAEVKKPGASVKVSCKASGYTFTDHHMHWVRQAPGQGLEWMGMINPSAASITYAPRFLGRVTMTRDTSTSTVYMELSSLRPEDTAVYYCAKVGIAVTGRGPHFYYYGLDVWGQGTTVTVSS
# chain 2: EIVLTQSPGTLSLSPGERATLSCRASQSVSDSYLAWYQHKPGQAPRLLMYGASSRATGIPERFSGSGSGTDFTLTISRLEPEDFAVYYCHRHGGVFGGGTKVEIK
# B17: antibody 3E01 (protein)
# chain 1: VQLVQSGAEVKKPGASVKVSCKTSGYTFTIYEINWVRQATGQGLEWMGTMNPNSATTGSAQKFQGRLTMTGNTSLRTTYMELSSLTSEDTAVYYCARLVSCGGDCYYFDSWGQGTLVTVSS
# chain 2: SYELTQAPSVSVAPGQTARIPCGGNNIGTKSVHWYQQRPGQAPVLVVYDDSDRPSGIPERFSGSNSGNTATLTISRVEAGDEADYYCQVWDSSGDQFGGGTKLTVL
# B18: R95-2A07 (protein)
# chain 1: QVQLVQSGSEVKKPGASVKVFCKASGYTFFNHYIHWVRQAPGQRLEWLGWVNTGNGDTKYAQKFQGRVTITRDTAARAAYMELSSLMSEDTAIYYCAREGTLGWGWDLRNEFYFMDVWGTGTTVIVSS
# chain 2: QSALTQPPSVSGAPGQRVTISCTGSSSNIGAGFEVHWYQQLPGSAPKLLISGSGARPSGVPDRFSASKSATSASLAITGLQAEDEADYYCQSYDSTLSGVLFGGGTKLTVL
# B19: C1-3E05 (protein)
# chain 1: VQLQESGPGLVTPSETLSLTCTVSGGSISSTIHYWGWIRQPPGKGLEWIGSVYYDGMTYHNPSLKSRVTMSADTSKNQFSLELSSVTAADTAVYFCARQQEGYYYYYGMDVWGQGTTVTVSS
# chain 2: EIVLTQSPGTLSLSPGERATLSCRASQSVNSNYLAWYQQKPGQAPRLLIYGASSRATGIPDRFSGSGSGTDFTLTISRLEPEDFAVYYCQQYTSPGFTFGPGTKVDIK
# Molecular target: H1 HA stem construct (mini-HA #4900)
# Test: mRNA display binding score; higher = more enriched on the antigen
# Settings: antigen blocked with: nothing
# Protocol: (§1)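 A pool of natively paired antibodies, displayed as scFv on mRNA, was selected once on antigen-coated beads and sequenced before and after; two replicates.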
row,Binder,mRNA display binding score
1,B1,inactive: -0.194
2,B2,inactive: -0.648
3,B3,inactive: 0.176
4,B4,inactive: -0.0289
5,B5,inactive: 0.0492
6,B6,inactive: 0.628
7,B7,inactive: -0.718
8,B8,inactive: 0.589
9,B9,inactive: -0.646
10,B10,inactive: 0.228
11,B11,inactive: -0.314
12,B12,inactive: 0.139
13,B13,inactive: 0.572
14,B14,inactive: -0.531
15,B15,inactive: 0.164
16,B16,inactive: -0.267
17,B17,inactive: -0.498
18,B18,inactive: -0.171
19,B19,inactive: -0.462

# Molecular target: H3 HA stem construct (H3ssF)
# Test: as above
# Settings: antigen blocked with: nothing
# Protocol: as §1
row,Binder,mRNA display binding score
1,B1,inactive: 1.71
2,B2,inactive: -0.694
3,B3,inactive: -0.302
4,B4,inactive: 0.418
5,B5,inactive: 0.624
6,B6,inactive: 1.88
7,B7,inactive: -0.474
8,B8,inactive: -0.0453
9,B9,inactive: -0.0501
10,B10,inactive: 0.199
11,B11,inactive: -0.255
12,B12,inactive: -0.00774
13,B13,active: 343
14,B14,inactive: -0.309
15,B15,inactive: -0.157
16,B16,inactive: -0.189
17,B17,inactive: -0.441
18,B18,inactive: 1.44
19,B19,inactive: -0.584
